Laboratory results taken from the supplement of paper PMC8183993.
Where a name gives a salt, the structure may show the parent alone. ± gives the standard deviation of the averaged measurements. Over roughly 3,200 compounds, “nuclei count (viability) relative to DMSO” has its median near 99; the lowest 2% begin near 16. This is one part of the list.

Test system: U2OS
Assay: nuclei count (viability) relative to DMSO (% of DMSO); higher = more viable cells
Conditions: 10 µM; 24 h
Description: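 Primary image-based screen in U2OS cells: compounds at 10 uM for 24 h, then a 1 h o-propargyl-puromycin (OPP) pulse, click labelling, and high-throughput microscopy. Mean cytoplasmic OPP intensity and nuclei count were normalised to DMSO wells within each plate (DMSO = 100) and averaged over triplicate plates.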

Row | Compound | nuclei count
1 | CN1[C@@H]2CC(O)C[C@H]1[C@@H]1O[C@@H]12 (some centres not stated) [Scopine] | 105
2 | S=C(NC1CCCCC1)N1CCC(c2cnc[nH]2)CC1 [Thioperamide maleate] | 108
3 | S=C(NC1CCCCC1)N1CCC(c2cnc[nH]2)CC1 [Thioperamide] | 75.5
4 | C#C[C@]1(O)CC[C@H]2[C@@H]3CCC4=CC(=O)CC[C@]4(C)[C@H]3CC[C@@]21C [Ethisterone] | 99.3 ± 2.2
5 | CC(C)[N+](C)(CCC(C(N)=O)(c1ccccc1)c1ccccc1)C(C)C [Isopropamide iodide] | 104
6 | O=C([O-])c1ccccc1-c1c2cc(Br)c(=O)cc-2oc2[c]([Hg+])c([O-])c(Br)cc12.[Na+].[Na+].[OH-] [Merbromin] | 105
7 | CC(=O)O[C@@]12CO[C@@H]1C[C@@H](O)[C@@]1(C)C(=O)[C@H](O)C3=C(C)[C@@H](O)C[C@@](O)([C@@H](OC(=O)c4ccccc4)[C@H]21)C3(C)C [10-DAB (10-Deacetylbaccatin)] | 100
8 | O=c1[nH]c2ccccc2n1CCCN1CCC(n2c(=O)[nH]c3cc(Cl)ccc32)CC1 [Domperidone] | 100 ± 6
9 | CC(C)CC(N(C)C)C1(c2ccc(Cl)cc2)CCC1 (configuration not stated) [Sibutramine HCl] | 98
10 | C=CCN1CC[C@]23c4c5ccc(O)c4O[C@H]2/C(=N/NC(=O)c2ccccc2)CC[C@@]3(O)[C@H]1C5 [Naloxone benzoylhydrazone] | 104
11 | c1cc2c(cc1[C@H]1OC[C@H]3[C@@H]1CO[C@@H]3c1ccc3c(c1)OCO3)OCO2 [Sesamin (Fagarol)] | 87.7
12 | CC(C)C(C(=O)OC(C#N)c1cccc(Oc2ccccc2)c1)c1ccc(Cl)cc1 (configuration not stated) [Fenvalerate] | 99.7
13 | COc1ccc(CN2CCNCC2)c(OC)c1OC [Trimetazidine dihydrochloride] | 113
14 | COc1ccc2c(c1)c(CCN1CCOCC1)c(C)n2C(=O)c1cccc(Cl)c1Cl | 107
15 | C[C@]12CC[C@H]3[C@@H](CCC4=CC(=O)CC[C@@H]43)[C@@H]1CC[C@@H]2O [Nandrolone] | 105
16 | N#Cc1ccc(N2CCN(C(=O)COc3ccc4[nH]cc(CCN)c4c3)CC2)cc1 [Donitriptan hydrochloride] | 90
17 | O=C(N[C@H]1CN2CCC1CC2)c1ccc(Cl)cc1 | 94.6
18 | CN1Cc2ccccc2[C@@H]2c3cccc4[nH]cc(c34)C[C@H]21 | 51
19 | c1ccc(CCCCN2CCC(c3ccccc3)CC2)cc1 [4-PPBP maleate] | 109
20 | C[C@H](N)Cc1cnc[nH]1 [(S)-(+)-a-Methylhistamine dihydrobromide] | 102
21 | C=C(C)[C@H]1CN[C@H](C(=O)O)[C@H]1CC(=O)O [Kainic acid] | 90.9
22 | CN(C)CCN(C)CCc1ccc(Cl)c(Cl)c1 [BD 1047 dihydrobromide] | 113
23 | CN1[C@@H]2CC[C@H]1C[C@@H](OC(=O)[C@H](CO)c1ccccc1)C2 [Hyoscyamine (Daturine)] | 108
24 | CN1[C@@H]2CC[C@H]1C[C@@H](OC(=O)[C@H](CO)c1ccccc1)C2 [Hyoscyamine (L)] | 90.8

Row | Compound | nuclei count
25 | C[C@H]([C@H](O)CCC(C)(C)O)[C@H]1CC[C@@]2(O)C3=CC(=O)[C@@H]4C[C@@H](O)[C@@H](O)C[C@]4(C)[C@H]3CC[C@]12C [Ecdysone] | 104
26 | O=C(O)Cc1cccnc1C(=O)O [Homoquinolinic acid] | 96.7
27 | CN[C@@H]1C[C@@H](c2ccc(Cl)c(Cl)c2)c2ccccc21 [Indatraline hydrochloride] | 87.5 ± 20
28 | O=[N+]([O-])c1cc(O)c(O)c([N+](=O)[O-])c1 | 107
29 | Clc1ccc(C2=CCCC3CCC2N3)cn1 (configuration not stated) [UB 165 fumarate] | 103
30 | CC1=CC(=O)c2c(O)cccc2C1=O [Plumbagin] | 17.8
31 | O=[N+]([O-])O[C@@H]1CO[C@H]2[C@@H]1OC[C@@H]2O [Isosorbide mononitrate] | 108
32 | CCCCCCC[n+]1ccc(-c2cc[n+](CCCCCCC)cc2)cc1 [DHBP dibromide] | 99.4
33 | CO[C@@H]1[C@H](OC(=O)NC(=O)CCl)CC[C@]2(CO2)[C@H]1[C@@]1(C)O[C@@H]1CC=C(C)C | 92.6
34 | C=CCN1C[C@H](C)N([C@H](c2ccc(C(=O)N(CC)CC)cc2)c2cccc(OC)c2)C[C@H]1C | 91.4
35 | C=CCN1C[C@H](C)N([C@H](c2ccc(C(=O)N(CC)CC)cc2)c2cccc(O)c2)C[C@H]1C | 97.1
36 | N=C(N)NN [Aminoguanidine hydrochloride] | 105
37 | C[C@H](N)[C@H](O)c1ccc(O)c(O)c1 [Levonordefrin] | 98.9
38 | CC(C)N(CCC(C(N)=O)(c1ccccc1)c1ccccn1)C(C)C (configuration not stated) [Disopyramide] | 95.2
39 | OC(Cc1ccncc1)C(Cl)(Cl)Cl (configuration not stated) | 101
40 | CS(=O)(=O)Nc1ccc(Cc2noc(-c3ccc4[nH]cc(CCN)c4c3)n2)cc1 | 102
41 | Cc1cccc(C)c1NC(=O)CN1CCCC1=O [Nefiracetam (Translon)] | 102
42 | CC[C@@H](C(=O)[C@@H](C)[C@@H](O)[C@H](C)[C@@H]1O[C@@H]([C@@H](CC)C(=O)O)CC[C@@H]1C)[C@H]1O[C@]2(C=C[C@@H](O)[C@]3(CC[C@@](C)([C@H]4CC[C@](O)(CC)[C@H](C)O4)O3)O2)[C@H](C)C[C@@H]1C [Salinomycin (Procoxacin)] | 97.2
43 | C(#CCN1CCCC1)CN1CCCC1 [Tremorine dihydrochloride] | 103
44 | C[C@]12CCC(=O)C=C1C=C[C@@H]1[C@@H]2CC[C@@]2(C)[C@H]1CC[C@@]2(O)CCC(=O)O [Canrenoic acid potassium salt] | 104
45 | CCCC[N+]1(C)[C@@H]2C[C@@H](OC(=O)[C@H](CO)c3ccccc3)C[C@H]1[C@@H]1O[C@@H]12 (some centres not stated) [Butylscopolamine bromide (Scopolamine butylbromide)] | 103
46 | N#CC(C#N)=Cc1ccc(O)c(O)c1 [AG 18 (Tyrphostin 23)] | 103
47 | Cc1cccc(Cc2c[nH]cn2)c1C [Detomidine HCl] | 108
